# Laboratory results reported in PubChem BioAssay AID2451 (National Center for Advancing Translational Sciences (NCATS), 2010).
# “And” between values parts separate entries of the source, which are not always exact repeats. Equal values may be shown once. Out of some 290,000 compounds screened, about 2,100 (0.72%) were called active. About 4% were inconclusive and are not listed. The call rests on the fitted dose curve; in most records, active means well fitted inhibition curve with a large enough effect; inconclusive means small, poorly fitted or top-dose-only effect, or effect the other way; inactive means flat fitted curve, though single readings scatter. This is a selection; strong and weak results do not stand in their true shares. The source holds several records for some structures; these can differ, active in one and inactive in another.
# Target: Fructose-bisphosphate aldolase (Giardia intestinalis (strain ATCC 50803 / WB clone C6)) (UniProt A8B2U2)
# Sequence of UniProt A8B2U2 (A8B2U2 whole entry, looked up): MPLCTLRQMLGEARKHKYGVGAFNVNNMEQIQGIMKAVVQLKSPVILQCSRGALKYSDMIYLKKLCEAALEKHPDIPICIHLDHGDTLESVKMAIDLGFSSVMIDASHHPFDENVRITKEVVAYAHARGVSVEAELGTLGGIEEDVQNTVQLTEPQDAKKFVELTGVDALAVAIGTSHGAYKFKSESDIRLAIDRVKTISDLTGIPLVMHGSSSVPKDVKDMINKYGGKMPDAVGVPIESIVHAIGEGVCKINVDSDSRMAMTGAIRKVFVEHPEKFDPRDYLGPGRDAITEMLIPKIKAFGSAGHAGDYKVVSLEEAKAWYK
# Experiment: qHTS Assay for Inhibitors of Fructose-1,6-bisphosphate Aldolase from Giardia Lamblia; further: nearly all actives have a fitted effect of over 55% in size
# Conditions: purified Giardia FBPA; series mostly up to 59.6 µM; activity, negative = inhibition: at the top concentration
# Procedure, shortened: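 40 nM FBPA preincubated 10 min at RT with compound (up to 57.5 uM final), then substrate plus GAPDH/TPI/NAD/arsenate coupling and diaphorase/resazurin added. Fluorescence read after 20 min at RT, 525/598 nm.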
# On the % scale 0 is the no-effect control and ±100 the full control effect; potency means the concentration at half of the fitted maximal effect.
SMILES,"activity, negative = inhibition",Potency
COc1cc(NC(C)CCCN)c2ncccc2c1 (stereo not drawn),inactive: -19.4%,
O=C(Nc1cc(C(=O)Nc2ccc(S(=O)(=O)O)cc2S(=O)(=O)O)cc(C(=O)Nc2ccc(S(=O)(=O)O)cc2S(=O)(=O)O)c1)Nc1cc(C(=O)Nc2ccc(S(=O)(=O)O)cc2S(=O)(=O)O)cc(C(=O)Nc2ccc(S(=O)(=O)O)cc2S(=O)(=O)O)c1,inactive: -9.93%,
Cc1ccc(S(=O)(=O)NC(=O)NN2CCCCCC2)cc1,,inactive
CO/N=C(/C(=O)NC1C(=O)N2C(C(=O)O)=C(CSc3nc(=O)c(O)nn3C)CSC12)c1csc(N)n1 (stereo not drawn),inactive: -24.5%,
CN1CCOC(c2ccccc2)c2ccccc2C1 (stereo not drawn),inactive: -11.1%,
CCC1(C)Cc2c(C#N)c(N)sc(=S)c2CO1 (stereo not drawn),,active: 2.23 µM
CCCCCCCCCCCC1=C(O)C(=O)C=C(O)C1=O,,inactive
Cc1cccc(CN2CCN([C@@H](c3ccccc3)c3ccc(Cl)cc3)CC2)c1,inactive: -9.67% [at 21.7 µM],
CCc1oc2ccccc2c1C(=O)c1cc(Br)c(O)c(Br)c1,,inactive
Cc1c(N2C(=O)/C(=C3\C(=O)N(CC(=O)O)c4ccccc43)SC2=S)c(=O)n(-c2ccccc2)n1C,,active: 9.98 µM
CC1(OC(=O)C2CCCC2)C(=O)C=C2C=C(c3ccsc3)OC=C2C1=O (stereo not drawn),inactive: -19.7%,
CCn1c(O)c(C(c2ccccn2)c2c(O)n(CC)c(=S)[nH]c2=O)c(=O)[nH]c1=S,,active: 17.7 µM
CC[C@H](C)C(=O)O[C@@H]1C[C@H](C)C=C2C=C[C@H](C)[C@@H](CC[C@H]3C[C@@H](O)CC(=O)O3)[C@H]21,inactive: -1.18% [at 21.7 µM],
COc1cc2c(cc1OC)-c1c(OC)c(OC)cc3ccnc(c13)C2=O,inactive: -29.2%,
CC(C)C1CCC(C(=O)N[C@H](Cc2ccccc2)C(=O)O)CC1 (stereo partly drawn),inactive: 29.4%,
C/C=C1/CN2CC[C@]34C(=C(C=O)[C@H]1C[C@@H]23)Nc1ccccc14,inactive: 2.42%,
COc1cc(O)c(C(CC(=O)N2CCCCC2)c2ccc3c(c2)OCO3)c(OC)c1 (stereo not drawn),inactive: -28.4%,
O=[N+]([O-])c1ccc(SCCc2ccncc2)cc1,inactive: 3.43%,
O=C1/C(=C/c2cc3c(cc2Cl)OCO3)N2CCC1CC2,inactive: -9.27%,
CC(C)NCC(O)c1cc(O)cc(O)c1 (stereo not drawn),,inactive
CO/N=C(\C(=O)N[C@@H]1C(=O)N2C(C(=O)O)=C(CSc3nc(=O)c(O)nn3C)CSC12)c1csc(N)n1 (stereo partly drawn),inactive: -0.662%,
CCOc1ccc(N/C(C)=C\C(=O)c2ccc3c(c2)OCCO3)cc1,inactive: 12.6%,

SMILES,"activity, negative = inhibition",Potency
N[C@@H](COP(=O)(O)O)C(=O)O,inactive: 2.04%,
COC(=O)CCCC1=CC2=CC(=O)C(C)(OC(=O)c3cccs3)C(=O)C2=CN1c1cccc(C#N)c1 (stereo not drawn),inactive: -10.8% [at 12.9 µM],
NCCc1ccc(O)c(O)c1,,inactive
COC(=O)CCCC1=CC2=CC(=O)C(C)(OC(=O)CCc3ccccc3)C(=O)C2=CO1 (stereo not drawn),,inactive
O=[N+]([O-])c1cc(F)c2cccnc2c1O,,active: 19.9 µM
COC(=O)[C@H]1[C@H]2C[C@H]3c4[nH]c5ccccc5c4CCN3C[C@H]2CC[C@@H]1O,inactive: -2.99%,
NCC(O)c1ccc(O)cc1 (stereo not drawn),,inactive
CC1(C)CC(=O)C(/C=N/n2cnc3ccccc3c2=O)=C(O)C1,,active: 17.7 µM
CNc1ccc2oc(C[C@H]3O[C@]4(CC[C@H]3C)O[C@H]([C@H](C)C(=O)c3ccc[nH]3)[C@H](C)C[C@H]4C)nc2c1C(=O)O,inactive: -8.39%,
Nc1ncnc2nc[nH]c12,inactive: 0.532%,
CC(=O)C[C@@H](c1ccccc1)c1c(O)c2ccccc2oc1=O,inactive: 20.8%,
CCOC(=O)N1CC=C2C(C#N)=C(N)C(C#N)(C#N)[C@H](c3cccs3)C2C1 (stereo partly drawn),inactive: -9.82%,
N[C@@H](Cc1ccc(O)c(O)c1)C(=O)O,inactive: -28.5% [at 21.7 µM],
O=C1c2c(O)ccc(O)c2C(=O)c2c(NCCNCCO)ccc(NCCNCCO)c21,,inactive
CC(=Nc1ccccc1N)c1c(C)cc(=O)n(O)c1O,,active: 8.89 µM and active: 15.8 µM
C[C@@](Cc1ccc(O)c(O)c1)(NN)C(=O)O,inactive: -3.02%,
c1ccc(-c2ccc(C(c3ccccc3)n3ccnc3)cc2)cc1 (stereo not drawn),,inactive
c1cncc(C2Nc3cccc4cccc(c34)N2)c1,inactive: -22.2%,
COC(=O)CCCC1=CC2=C(c3ccccc3)C(=O)C(C)(OC(=O)C3CCCC3)C(=O)C2=CN1Cc1ccco1 (stereo not drawn),inactive: -17.4% [at 12.9 µM],
CCCCc1cc2c(cn1)=C(OC(=O)c1cnc3ccccc3n1)C(C)(OC(=O)CC)C(=O)C=2 (stereo not drawn),inactive: -11.8% [at 12.9 µM],
CC(=O)O[C@]1(C(C)=O)CC[C@H]2[C@@H]3C=C(Cl)C4=CC(=O)CC[C@]4(C)[C@H]3CC[C@@]21C,inactive: -29%,
Nc1ccn([C@H]2C[C@H](O)[C@@H](CO)O2)c(=O)n1,inactive: 5.26%,

SMILES,"activity, negative = inhibition",Potency
N#C/C(=C/c1ccncc1)c1nc2ccccc2c(=O)[nH]1,inactive: -24.7%,
CC(C)CN1C=C2C(=O)C(C)(OC(=O)C3CCCC3)C(=O)C=C2C=C1c1ccsc1 (stereo not drawn),inactive: 7.49% [at 12.9 µM],
CCC[C@H]1C[C@H](C(=O)N[C@@H]([C@H]2O[C@@H](SC)[C@@H](O)[C@@H](O)[C@@H]2O)[C@H](C)Cl)N(C)C1,inactive: 0.681% [at 21.7 µM],
CCC(C)C(=O)OC1CC(C)C=C2C=CC(C)C(CCC3CC(O)CC(=O)O3)C21 (stereo not drawn),inactive: 0.848%,
CN[C@@H](C)[C@@H](O)c1ccccc1,inactive: -20.8%,
O=C(O)Cc1csc(-c2cccc(Oc3ccccc3)c2)n1,inactive: 26.2%,
COC1=C[C@@H]2[C@@H]3Cc4ccc(OC)c(O)c4[C@]2(CCN3C)CC1=O,inactive: -25%,
COC(=O)[C@H]1[C@@H]2C[C@@H]3c4[nH]c5ccccc5c4CCN3C[C@H]2CC[C@H]1O,inactive: -22.7%,
CO[C@]1(NC(=O)Cc2cccs2)C(=O)N2C(C(=O)O)=C(COC(N)=O)CS[C@H]21,inactive: -14.4% [at 21.7 µM],
COc1cc(Br)c(CN2CCCN(C)CC2)cc1OC,,active: 12.6 µM
C[C@H](N)Cc1c[nH]c2ccc(O)cc12,inactive: -27.1%,
C[C@@H]1CCc2cc(F)cc3c(=O)c(C(=O)O)cn1c23,inactive: -13.4% [at 21.7 µM],
COc1ccc2c(c1)c(CC(=O)OCC(=O)O)c(C)n2C(=O)c1ccc(Cl)cc1,,inactive
COC/C=C/C1=CC2=CC(=O)C(C)(OC(=O)CCC(=O)OC)C(=O)C2=CO1 (stereo not drawn),inactive: -13.2%,
CC(C)c1ccc(/C=N/N2CCCCC2)cc1,,active: 14.1 µM
O=C(O)c1cccc(-n2cccc2/C=C\[N+](=O)[O-])c1,inactive: -21.9%,
Cn1cc(C2=C(c3cn(CCCSC(=N)N)c4ccccc34)C(=O)NC2=O)c2ccccc21,inactive: -28.6%,
COC(=O)CCC(=O)OC1(C)C(=O)C=C2C=C(C3CC3)N(CCCOC(C)C)C=C2C1=O (stereo not drawn),inactive: -27% [at 12.9 µM],
CNC(C)[C@@H](O)c1ccccc1 (stereo partly drawn),inactive: 1.99%,
C[C@@H](C(=O)O)c1ccc(-c2ccccc2)c(F)c1,inactive: 15.2% [at 21.7 µM],
Fc1ccc(-[n+]2nc(Nc3ccccc3)sc2-c2c3ccccc3cc3ccccc23)cc1,,active: 22.4 µM
O=c1cc(O)c2sc(Nc3ccc(F)c(Cl)c3)nc2[nH]1,,active: 1.99 µM

SMILES,"activity, negative = inhibition",Potency
N#Cc1c(N2CCCCC2)nc(N)c2c(N)nc(SCC(=O)O)cc12,,active: 12.6 µM
COc1cc2nc(N3CCN(C(=O)[C@H]4CCCO4)CC3)nc(N)c2cc1OC,inactive: -2.34%,
CNc1ccc2oc(C[C@@H]3OC4(CC[C@@H]3C)O[C@H](C(C)C(=O)c3ccc[nH]3)[C@H](C)C[C@H]4C)nc2c1C(=O)O (stereo partly drawn),inactive: -7.92%,
CC1(OC(=O)C2CCCC2)C(=O)C=C2C=C(c3ccsc3)N(Cc3ccco3)C=C2C1=O (stereo not drawn),inactive: -24.6% [at 12.9 µM],
NCCS,,inactive
C/C(=C/C=C/[C@@H](C)C(=O)O)[C@H]1CN[C@H](C(=O)O)[C@H]1CC(=O)O,inactive: -29.8%,
CC1(C)[C@@H](O)CC[C@]2(C)[C@H]3C(=O)C=C4[C@@H]5C[C@@](C)(C(=O)O)CC[C@]5(C)CC[C@@]4(C)[C@]3(C)CC[C@@H]12,inactive: -0.579%,
COc1ccc2c3c1O[C@H]1C[C@@H](O)C=C[C@@]31CCN(C)C2,,inactive
O=C1S/C(=C/c2ccc(N3CCOCC3)o2)C(=O)N1Cc1c(F)cccc1Cl,inactive: -20.4%,
NC(=O)N1c2ccccc2CC(=O)c2ccccc21,inactive: -7.37%,
C=CCN1C=C2C(=O)C(C)(OC(=O)C3CCCC3)C(=O)C(c3ccccc3)=C2C=C1CCCC(=O)OC (stereo not drawn),inactive: -5.01% [at 12.9 µM],
Fc1ccccc1CN1CCN(c2ncccn2)CC1,,active: 25.1 µM
CC1(OC(=O)CCc2ccccc2)C(=O)C=C2C=C(c3ccc(C#N)cc3)N(CCc3ccccn3)C=C2C1=O (stereo not drawn),inactive: 11% [at 12.9 µM],
C[C@H](CCC(=O)O)[C@H]1CC[C@@H]2[C@H]3CC[C@H]4C[C@@H](O)CC[C@@]4(C)[C@H]3CC[C@]21C,inactive: 15.6% [at 21.7 µM],
COc1ccc(CN2CCN(Cc3ccccc3F)CC2)cc1,,active: 15.8 µM
NC(=O)C1CCN(CC(=O)Nc2nccs2)CC1,,active: 3.55 µM
O=S(=O)(NCc1ccco1)c1ccccc1Br,inactive: -12.9%,
COC(=O)CCC(=O)OC1(C)C(=O)C=C2C=C(C3CC3)N(CCN3CCOCC3)C=C2C1=O (stereo not drawn),inactive: -28.6% [at 12.9 µM],
Cc1cc(C)c(O)c(N)c1,,active: 19.9 µM
CCCCC1=CC2=C(c3ccco3)C(=O)C(C)(OC(=O)c3ccc(OC)cc3)C(=O)C2=CN1C1CC1 (stereo not drawn),inactive: -29.3%,
N#C/C(=C/c1ccco1)C(N)=S,,active: 15.8 µM
CO/N=C(\C(=O)N[C@@H]1C(=O)N2C(C(=O)O)=C(COC(C)=O)CS[C@H]12)c1csc(N)n1 (stereo in doubt),,inactive
